Substitutions are numbered along the chain they refer to; changes in the protein carry UniProt numbers. This is one part of the list.
T1: RBFOX1 RRM (Homo sapiens, UniProt Q9NWB1 109-208)
T1 sequence: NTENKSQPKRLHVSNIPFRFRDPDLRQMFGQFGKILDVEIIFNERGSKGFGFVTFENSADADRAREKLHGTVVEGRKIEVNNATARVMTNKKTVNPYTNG

B1: UAAUUAA (DNA:RNA)
RNA: GGGAGACCGGAAUUCAGAUUGUCCUAAUUAAUUAAAUCCCGUCGUAGCCACCA
DNA 1: CAATCTGAATTCCGGTCTCCC
DNA 2: TGGTGGCTACGACGGGATT
B2: GAAGCGG (DNA:RNA)
RNA: B1 RNA with U25G, U28G, U29C, A30G, A31G
DNA 1: CAATCTGAATTCCGGTCTCCC
DNA 2: TGGTGGCTACGACGGGATT
B3: UUCCCUA (DNA:RNA)
RNA: B1 RNA with A26U, A27C, U28C, U29C, A30U
DNA 1: CAATCTGAATTCCGGTCTCCC
DNA 2: TGGTGGCTACGACGGGATT
B4: UGCAGUC (DNA:RNA)
RNA: B1 RNA with A26G, A27C, U28A, U29G, A30U, A31C
DNA 1: CAATCTGAATTCCGGTCTCCC
DNA 2: TGGTGGCTACGACGGGATT
B5: CCGUUCU (DNA:RNA)
RNA: B1 RNA with U25C, A26C, A27G, A30C, A31U
DNA 1: CAATCTGAATTCCGGTCTCCC
DNA 2: TGGTGGCTACGACGGGATT
B6: GUGUUCU (DNA:RNA)
RNA: B1 RNA with U25G, A26U, A27G, A30C, A31U
DNA 1: CAATCTGAATTCCGGTCTCCC
DNA 2: TGGTGGCTACGACGGGATT
B7: AAAGCAG (DNA:RNA)
RNA: B1 RNA with U25A, U28G, U29C, A31G
DNA 1: CAATCTGAATTCCGGTCTCCC
DNA 2: TGGTGGCTACGACGGGATT
B8: CGAUAUG (DNA:RNA)
RNA: B1 RNA with U25C, A26G, U29A, A30U, A31G
DNA 1: CAATCTGAATTCCGGTCTCCC
DNA 2: TGGTGGCTACGACGGGATT
B9: UGUAGUG (DNA:RNA)
RNA: B1 RNA with A26G, A27U, U28A, U29G, A30U, A31G
DNA 1: CAATCTGAATTCCGGTCTCCC
DNA 2: TGGTGGCTACGACGGGATT

What follows are binders tested against T1, RBFOX1 RRM (assay: EMSA; HiTS-Eq, 1 nM pool, 10 min; buffer printed only for the single-RNA assays: 10 mM Tris pH 7.5, 150 mM NaCl, 3.4 mM EDTA, 0.001% NP-40, 30 C). Details: tags: His6 N-terminal (pET28a); label: 5' 32P.
How it was run: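 Relative association constants, normalised to the cognate motif, were derived by comparing read counts of each RNA species with those of the control reaction. The RNA sequenced was the free fraction, separated by 8% native PAGE after a 10 min equilibration in 50 µL of 1 nM 5′-radiolabelled RNA (7 randomized nucleotides) with increasing concentrations of purified wild-type or mutant RbFox RRM.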

**Q.** For B1, which binding signal is on record?
**A.** Its binding signal is 0.00562 KA relative to UGCAUGU.

**Q.** B2 was tested. Which binding signal did it give?
**A.** The binding signal was 0.014 KA relative to UGCAUGU.

**Q.** With B3 as the binder, how does the binding signal read?
**A.** Its binding signal is 0.00517 KA relative to UGCAUGU.

**Q.** For B4, which binding signal is on record?
**A.** The binding signal was 0.0191 KA relative to UGCAUGU.

**Q.** With B5 as the binder, how does the binding signal read?
**A.** The binding signal was 0.0107 KA relative to UGCAUGU.

**Q.** With B6 as the binder, how does the binding signal read?
**A.** The binding signal was 0.0169 KA relative to UGCAUGU.

**Q.** How did the binding signal turn out when B7 was run?
**A.** Its binding signal is 0.00469 KA relative to UGCAUGU.

**Q.** Which binding signal does the source give for B8 here?
**A.** The binding signal was 0.0124 KA relative to UGCAUGU.

**Q.** Which binding signal does the source give for B9 here?
**A.** Its binding signal is 0.0216 KA relative to UGCAUGU.

— article PMC9911399, “Two distinct binding modes provide the RNA-binding protein RbFox with extraordinary sequence specificity”
